Laboratory results reported in the supplement of paper PMC3334620.
The full ranking holds about 33,000 sequences; the median of “E-score (-0.5 to 0.5)” is about -0.035, and the highest 2% start at about 0.34. The list shows a part of the results.

Target: T1, Mot3 (UniProt P54785)
T1 sequence: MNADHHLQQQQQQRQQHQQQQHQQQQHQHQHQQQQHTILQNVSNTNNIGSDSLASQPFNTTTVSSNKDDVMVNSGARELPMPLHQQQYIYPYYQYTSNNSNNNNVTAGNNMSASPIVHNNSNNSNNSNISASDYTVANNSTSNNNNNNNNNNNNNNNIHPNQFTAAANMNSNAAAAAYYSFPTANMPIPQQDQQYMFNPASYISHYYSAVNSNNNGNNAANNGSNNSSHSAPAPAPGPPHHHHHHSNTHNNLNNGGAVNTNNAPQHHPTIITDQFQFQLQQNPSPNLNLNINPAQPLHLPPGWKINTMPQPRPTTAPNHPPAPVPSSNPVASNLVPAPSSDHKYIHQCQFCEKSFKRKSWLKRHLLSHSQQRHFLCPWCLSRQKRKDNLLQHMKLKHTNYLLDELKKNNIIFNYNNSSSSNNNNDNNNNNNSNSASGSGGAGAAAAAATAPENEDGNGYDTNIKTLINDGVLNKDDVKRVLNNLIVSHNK
Assay: PBM E-score (8-mer binding enrichment) (E-score (-0.5 to 0.5)); higher = stronger / more preferred TF binding; most listed sequences are background and not binding sites
Details: protein concentration: 200 nM; construct: GST-full length
In short: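 Universal all-10-mer Agilent arrays, fresh or stripped once, were converted to double-stranded form by primer extension. GST-tagged yeast transcription factors from PURExpress in vitro transcription/translation, full-length or DNA-binding domain only, were applied at about 100-200 nM and detected with fluorescent anti-GST. After masliner normalisation, the Universal PBM Analysis Suite scored each ungapped eight-base word together with its reverse complement by E-score.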

Sequence	PBM E-score
CTCTCGCA	-0.279
CCCAAGAC	-0.241
AACTGAAA	0.0669
CCTTAGCA	-0.0537
AGAACTGA	0.0206
GCGATACC	-0.355
ATCGACGC	0.0479
TCTGGCCA	-0.0337
ATGGGGCG	-0.0949
ATTTAGTA	0.054
GGATTAAA	0.0348
GCGGTTGA	0.0516
GGCCAGAC	-0.148
GGCCAACC	-0.186
TATACGAA	0.0446
AATTCCAC	-0.164
AATGATAA	0.138
ACACTCCT	0.0589
GAGCGCGC	-0.282
GGACCCCC	-0.351
CACGTTGC	0.158
AGGGAGTA	-0.0149
AAGTTCAT	-0.132
ACTTGCAC	-0.00643
AGACCACC	-2e-05

Sequence	PBM E-score
AGGCGGCC	-0.289
AGGTCGAC	0.0953
ACTGGCAA	-0.0839
ACCGTAAA	0.105
AAATGTGG	0.0308
GCGCAAAA	0.0303
AAACGTAT	0.172
ACGAGCCC	-0.15
GCAGAATA	-0.106
CAACTCAC	0.0213
ATACGGGC	0.00415
CAGTCTGG	-0.104
TGAACAAA	0.236
AGGATATG	-0.0878
ATTCTATG	0.154
ATACCGAA	0.0362
CCCCTGAA	-0.084
ATGTATGG	0.111
AGACCCCC	-0.0704
ATCTATTA	0.126
ACGCACTA	0.0546
AGCGCGGA	-0.208
CTTTGCCC	-0.103
AGCACGAT	-0.122
CCTTCAAG	0.351

Sequence	PBM E-score
AAGGGTAG	-0.155
GCTAGTTA	0.0186
CATCCAAG	-0.0299
AGTATCTG	-0.14
ACTGTTGA	0.0174
ATAGTAGA	-0.0168
ACGATGCA	-0.11
GAGGTATA	-0.0563
TATATGAA	0.122
CCGCCTTA	-0.0792
CCGCACGG	-0.185
ACAATGCA	0.296
CAGGTTGG	-0.194
CGAAAGCC	-0.148
CGTGGTTA	0.0287
ATGTTCAA	0.148
AGATTCCA	-0.0136
AAGACACG	0.262
AGTCCGTC	-0.0872
AAGTTCCT	0.341
AGTACTAA	0.0884
GATGTTCC	0.0955
ACAGCTCC	-0.142
ATTCGTAC	0.117
AAGAGATA	-0.0912

Sequence	PBM E-score
TACAATCA	0.294
AAATGTAG	0.151
ATCGCAAA	-0.0857
GAGCACTA	-0.093
GCGCTGGA	-0.242
TATTGCCA	-0.0535
CGAAGTCA	-0.114
ATTCGCTC	-0.202
GCTAATCA	-0.005
AAGATGGA	-0.247
GCTGCCCA	-0.293
AGCGTTGG	-0.0923
GATCAGGC	0.241
ATTGAGTG	-0.0778
TCCAAGGA	-0.0839
AGTCTAGA	-0.269
AATCTTGT	0.17
GTCGCAGA	-0.289
ACCCTCCC	-0.276
CCATTTGA	-0.224
CGTGCTAA	0.158
GATCGACA	0.048
ACGTCAAC	0.0709
AACGAAGG	0.115
CTTCAGTC	0.0179

Sequence	PBM E-score
TCTTCGCA	0.071
TACTCCAA	-0.0209
ATACATCA	0.16
AAACGGCA	0.139
ACTAGCGA	-0.0915
GTCTTCAA	-0.0786
CCTTCAGC	0.0304
CCGCGGAG	-0.26
CAGACATA	0.182
CGCGTAGC	0.159
CCCTACGG	-0.0611
GATCACGA	-0.167
ATACTCGC	-0.121
CTAGAATA	0.016
GACACTAC	0.0334
CAGAGGTA	0.128
GATGCCGC	-0.202
GGATCCAC	-0.191
GGGCTCAA	-0.193
AATTCGCA	-0.14
CTAACACC	0.0726
CGAGCTCG	-0.245
GGCGTAGA	0.0509
AAGTGGCA	-0.205
GATGCCCC	-0.345

Sequence	PBM E-score
AGCCCCGC	-0.0269
GTTAAACA	0.256
CGCTAATA	0.0369
ATTGACCA	-0.00092
TCGCAACA	0.122
CTGCCTCA	-0.15
GATTAGCA	-0.0223
ACTACCGG	-0.139
GCAATGGA	-0.00402
CTGGGGCC	-0.282
AAACAAGT	0.151
GCAATTCC	-0.0291
ACCACATC	-0.0145
ATGTTGAG	0.292
AACTTTGG	-0.117
AACAGGTG	0.229
ACAATACC	0.172
GGGGTACA	0.00623
CCTCAGAC	-0.246
CCAAATCG	-0.102
CTGACCAA	0.0349
AGCAACCT	0.0912
GGGGAACC	-0.0132
TGGTCACA	-0.0395
ACCTGACG	-0.0619

Sequence	PBM E-score
ACCGGGTG	-0.0881
ACCGTGAT	-0.138
GCACCCCC	-0.0681
CTCTCGTA	-0.108
ACCACGTC	-0.168
AGCAGTAC	0.0283
TAAATTAA	0.215
ATGTGAAC	0.132
AGCGCTTA	-0.0175
ACGACAAC	0.146
ATCTAGCA	0.0225
GGCGCTTA	-0.14
ATATTAAT	0.072
CCTTGATA	0.108
ATTGCACC	0.171
ACGTCCCT	0.0654
ACGATAAA	0.0953
ATATCTGC	-0.149
CTCAAACA	0.176
TAGGCCCA	0.0261
ACTGCCCG	-0.127
GTTGACTA	-0.0493
ACATGTAA	0.437
AACTCTCT	-0.19
GCCTTGGA	0.018

Sequence	PBM E-score
AGAGGCTG	-0.18
AAAGTAGG	0.226
CTAAAGAA	0.192
ACCGCGGG	-0.0782
AACGCTTC	0.0166
AACCACCA	0.0159
ATGAAAAG	-0.044
CTCTAGAC	-0.0965
ACATACTA	0.188
AGCCGCAT	-0.0444
ACTGCTTA	0.0258
CACCATTA	0.0595
AGAGCCAG	-0.0378
ACCACAGA	-0.0586
AAATCGTC	-0.143
ATATGACG	0.0195
CATCTCGG	-0.266
TAGTTGCA	-0.0803
GATATTTA	0.145
CGTCAACC	-0.0141
CTGTTATC	0.0617
ACGCTGGA	-0.0979
CAGGGAGG	-0.165
CCACGACA	-0.222
GGAGAATA	0.0174

Sequence	PBM E-score
ACCTCATG	-0.175
GCCGCAGC	-0.289
ACCGTAGC	-0.129
GTAATTAC	0.378
GTGTCCAA	0.0604
GTTTTAAA	0.139
GCGGGTGA	-0.126
CAGAAGCG	-0.219
CGTGCGGC	-0.342
CCGCTTCG	-0.234
AACAAGCA	0.206
CGGTTGGA	-0.154
AGTATCAA	-0.0205
TATGTAAA	0.434
ATCATCAG	0.00601
CCGGCGCG	-0.153
ATTGAAAT	0.0839
AGATGGTG	-0.0242
TTTACAAA	0.331
